The whole screen tested about 310,000 compounds, of which about 2,200 (0.71%) showed an effect of 50% or more. Effects have a minus sign here. The list shows a part of the results.
Each compound was assayed against human ether-à-go-go-related gene (hERG) potassium channel (human, UniProt Q12809) (assay: primary screen, population patch clamp on CHO cells stably expressing hERG).
human ether-à-go-go-related gene (hERG) potassium channel, sequence (Q12809 whole entry, looked up): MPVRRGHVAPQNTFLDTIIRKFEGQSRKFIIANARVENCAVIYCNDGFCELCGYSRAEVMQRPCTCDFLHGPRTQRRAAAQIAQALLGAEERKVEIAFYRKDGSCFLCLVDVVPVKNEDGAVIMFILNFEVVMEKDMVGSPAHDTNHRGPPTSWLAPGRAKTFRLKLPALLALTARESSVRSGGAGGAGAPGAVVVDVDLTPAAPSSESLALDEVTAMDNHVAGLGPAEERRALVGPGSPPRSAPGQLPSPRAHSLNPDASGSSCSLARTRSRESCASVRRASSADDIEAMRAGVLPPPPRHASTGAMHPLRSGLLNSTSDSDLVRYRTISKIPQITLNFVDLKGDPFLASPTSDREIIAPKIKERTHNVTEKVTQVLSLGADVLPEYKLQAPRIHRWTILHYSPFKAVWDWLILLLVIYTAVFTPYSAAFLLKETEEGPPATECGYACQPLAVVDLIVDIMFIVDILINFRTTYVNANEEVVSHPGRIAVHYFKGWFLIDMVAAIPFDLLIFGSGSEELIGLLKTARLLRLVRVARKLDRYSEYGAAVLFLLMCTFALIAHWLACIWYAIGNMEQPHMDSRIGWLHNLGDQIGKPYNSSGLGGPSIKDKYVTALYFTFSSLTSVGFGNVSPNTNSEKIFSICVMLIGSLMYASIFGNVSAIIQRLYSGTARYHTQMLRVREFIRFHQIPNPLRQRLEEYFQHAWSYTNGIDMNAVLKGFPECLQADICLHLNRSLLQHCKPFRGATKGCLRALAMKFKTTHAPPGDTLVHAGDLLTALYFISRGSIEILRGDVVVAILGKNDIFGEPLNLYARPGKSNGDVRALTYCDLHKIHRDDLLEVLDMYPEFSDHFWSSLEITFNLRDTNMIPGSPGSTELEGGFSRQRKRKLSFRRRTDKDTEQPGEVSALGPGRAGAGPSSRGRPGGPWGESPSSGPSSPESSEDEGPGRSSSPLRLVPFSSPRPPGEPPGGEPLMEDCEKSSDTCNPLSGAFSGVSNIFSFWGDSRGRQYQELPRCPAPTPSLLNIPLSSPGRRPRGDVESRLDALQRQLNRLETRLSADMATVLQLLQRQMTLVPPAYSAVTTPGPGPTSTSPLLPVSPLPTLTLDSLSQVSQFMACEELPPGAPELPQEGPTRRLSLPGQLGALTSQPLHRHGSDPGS

| Compound | hERG current change (%, negative = inhibition) at 1uM |
| --- | --- |
| COc1ccc(C(=O)C2CCCN(C(=O)Cn3cncn3)C2)cc1OC (stereo not shown) | 41.6% |
| Cc1cccc(-n2nc3c(c2NC(=O)c2ccc(Br)o2)CSC3)c1 | 10.3% |
| CC(C)[C@H](NC(=O)N1CCn2c1nc1ccccc12)C(=O)NCc1ccco1 | 5.69% |
| CN(C)c1nc(N)c(C(=O)N=C(N)N)nc1Cl.Cl | -2.45% |
| Fc1ccc(N2CCN(C(c3cccs3)c3nnnn3CCc3ccccc3)CC2)cc1 (stereo not shown) | 12.4% |
| COc1ccc(CCN2C(=NC(=O)CCC(=O)O)SC3CS(=O)(=O)CC32)cc1 (stereo not shown) | 2.94% |
| CCc1nc2c(sc3nc4c(cc32)COC(C)(C)C4)c(=O)n1Cc1ccco1 | -3.97% |
| Cc1ccc(CSc2nc3ccccc3c(=O)n2Cc2ccco2)cc1 | 7.54% |
| O=C(CN1C(=O)CSC1=O)NCc1ccccc1 | 5.3% |
| CC(CN1CCOCC1)OC(=O)c1cccc(Br)c1.Cl (stereo not shown) | -1.61% |
| CCn1c(SCc2nc3scc(-c4ccccc4)c3c(=O)[nH]2)nnc1-c1ccc(Cl)cc1 | 5.93% |
| Cc1cc(=O)[nH]c2c1c(C)nn2C1CCOC(C)(C)C1 (stereo not shown) | 8.96% |
| Cc1cc(SCC(=O)N/N=C/c2ccc(O)c(O)c2)nc2ccccc12 | 19.1% |
| Cc1ccccc1NC(=S)N(Cc1cccs1)C1CCCCC1 | 15% |
| CCCN(CC(=O)Nc1ccccc1C)C(=O)c1ccc(S(=O)(=O)N2CCCCCC2)cc1 | -1.46% |
| Cc1ccc(CNC(=O)CCSCc2ccccc2C)cc1 | 7.55% |
| CC1(C)CC(=O)C(C(C2=C(O)CC(C)(C)CC2=O)c2ccc(O)c([N+](=O)[O-])c2)=C(O)C1 | 10.4% |
| CCOc1ccc(C2C(C#N)=C(N)SC(N)=C2C#N)cc1OC | -1.4% |
| Cc1cccc2cc(CN(Cc3ccccc3)C(=O)N(C)C)c(=O)[nH]c12 | 2.1% |
| Cc1nc(SCC(=O)N(C)C2(C#N)CCCCC2)c2ccccc2n1 | 6.3% |
| COc1ccccc1OCCn1cc(C(=O)c2ccco2)c2ccccc21 | 12.1% |
| C[C@@H]1O[C@@H](O[C@@H]2C=C3CCC4C(CC[C@]5(C)[C@@H](c6ccc(=O)oc6)CC[C@]45O)[C@@]3(C)CC2)[C@H](O)[C@H](O)[C@H]1O (stereo partly shown) | 16.5% |

| Compound | hERG current change (%, negative = inhibition) at 1uM |
| --- | --- |
| CCCC1(C(=O)OC)NC(c2cccc(F)c2)C2C(=O)N(CC)C(=O)C21 (stereo not shown) | 12.6% |
| CCc1ccc(OCc2nnc(SCC(=O)NCc3ccco3)o2)cc1 | -16.9% |
| CN(Cc1ccc(F)cc1)S(=O)(=O)c1nnc(NC(=O)c2ccccc2)s1 | 8.23% |
| COc1ccc(NC(=O)CCNS(=O)(=O)c2ccccc2F)cc1S(N)(=O)=O | 21.2% |
| Cc1c2cnn(CC(=O)NCCCN3CCCCC3C)c(=O)c2c(C)n1Cc1ccccc1 (stereo not shown) | 10.8% |
| O=C(NC1CCCC1)C(c1ccncc1)N(Cc1ccccc1F)C(=O)c1csnn1 (stereo not shown) | 10.1% |
| COc1ccc(NC(=O)CCNC(=O)N2CC(=O)Nc3ccccc32)c(OC)c1 | 20.9% |
| Cc1ccccc1NC(=O)c1sc2nc3c(c(-c4ccco4)c2c1N)CCCC3 | 1.69% |
| O=S1(=O)N=C(N(CCO)/N=C/C=C/c2ccccc2)c2ccccc21 | -4.99% |
| CCCCN(C(=O)CCC(=O)Nc1cc(C)on1)C(C(=O)NC(C)(C)C)c1ccccc1Cl (stereo not shown) | 16.6% |
| COc1ccc(OC)c(-n2c(C)ccc2-c2ccc(S(C)(=O)=O)cc2)c1 | 0.856% |
| COc1ccc(CNC(=O)c2ccc3ccccc3n2)cc1 | 11.8% |
| CCCN1CCN(C(=O)c2ccc(CS(=O)c3ccc(F)cc3)o2)CC1 (stereo not shown) | 1.81% |
| N/C(=N\OC(=O)c1cc(Br)ccc1Cl)c1cccnc1 | 20.2% |
| COc1cc(OC)cc(OC(=O)C2CCN(C3=NS(=O)(=O)c4ccccc43)CC2)c1 | 5.96% |
| CN(CC(=O)c1c(N)n(C)c(=O)n(C)c1=O)c1ccccc1 | 4.92% |
| COc1cc(NC(=O)c2c3c(nc4ccccc24)CCC3)cc(OC)c1 | 3.13% |
| CC(C)OP(=O)(OC(C)C)C(O)c1ccc2c(c1)OCO2 (stereo not shown) | 15.9% |
| COC(=O)CC1COc2ccccc2N1C(=O)c1ccc(OC)cc1 (stereo not shown) | -1.97% |
| CN(C(=S)Nc1cccnc1)c1ccc(O)cc1 | 7.75% |
| CN1CCN(CCC(=O)N/N=C/C=C2\N(C)c3ccccc3C2(C)C)CC1 | 2.3% |
| CCOC(=O)c1[nH]c2cc3c(cc2c1NC(=O)CN1CCCC1)OCO3 | 8.75% |

| Compound | hERG current change (%, negative = inhibition) at 1uM |
| --- | --- |
| Cc1ccc(NC(=O)N2CCc3ccccc3C2)cc1C | 18.5% |
| O=C(Nc1ccncc1Cl)c1ccncc1 | 8.97% |
| CC(=O)C1=C(C)NC(SCC(=O)c2ccc(Cl)cc2Cl)=C(C#N)C1c1ccco1 (stereo not shown) | 1.93% |
| CCN(CC(=O)Nc1ccc(NC(C)=O)cc1)CC(=O)Nc1cc(C)on1 | -6.57% |
| COC(=O)c1ccc(NC(=O)CN(c2ccc(OC)cc2)S(C)(=O)=O)cc1 | 6.45% |
| COc1ccc(/C=N/NC(=O)CSCC(=O)Nc2ccccc2)cc1OC | 12.6% |
| CCN1CCN(Cc2c(O)ccc3c(=O)c(-c4ccccc4OC)coc23)CC1 | 5.36% |
| O=C(C1CC(=O)N(C2CCCC2)C1)N1CCN(c2ccccc2F)CC1 (stereo not shown) | 10.6% |
| Cc1cc(C)nc(NC(=O)Cc2ccc(Br)cc2)n1 | 7.73% |
| CC(C)COC(=O)C1C(=O)CC(C)(O)C(C(=O)OCC(C)C)C1c1cccnc1 (stereo not shown) | -8.07% |
| ClC(=C\c1ccccc1)/C=N/N1CCN(c2ccccn2)CC1 | 3.86% |
| CC(CC(=O)Nc1ccccc1)NCCCN1CCCC1=O.O=C(O)C(=O)O (stereo not shown) | 11.3% |
| C=CCNC(=O)c1ccccc1NS(=O)(=O)c1ccc(SC)cc1 | 10.5% |
| COc1ccc(CC(=O)N2CCN(c3cccc(C)c3C)CC2)cc1 | 8.58% |
| CC(NC(=O)Cc1cccs1)c1ccccc1 (stereo not shown) | 20.3% |
| CC(=O)c1c(C)[nH]c(C(=O)OCC(=O)N2CCN(S(=O)(=O)c3ccc(C)cc3C)CC2)c1C | 1.54% |
| COc1ccccc1CNC(=O)[C@@H]1CCCN1S(=O)(=O)c1ccc(Cl)cc1 | 9.34% |
| COC(=O)c1cccc(N(C(=O)c2ccco2)C(C(=O)NC2CCCC2)c2ccc(N3CCOCC3)cc2)c1 (stereo not shown) | 7.88% |
| O=[N+]([O-])c1cc(-c2csc(NCCc3nc4cc(Cl)c(N5CCCCC5)cc4n3CCCO)n2)ccc1Cl | 13% |
| CCOC(=O)c1c(C)[nH]c(C(=O)CSc2nc3ccccc3o2)c1C | 9.24% |
| CCOC(=O)CCCn1c(C)nc(=O)c(-c2ccccc2)c1C | 5.37% |
| CCOc1ccc(Nc2ncnc3c2nnn3Cc2ccccc2)cc1 | 7.29% |

| Compound | hERG current change (%, negative = inhibition) at 1uM |
| --- | --- |
| O=C(NCc1cccc(Cl)c1)c1ccc2c(c1)OCCO2 | 16.6% |
| COc1ccc(C(CC(=O)O)NS(=O)(=O)c2ccc3c(c2)N(C(C)=O)CC(C)O3)cc1 (stereo not shown) | 21.6% |
| CCCNC(=O)c1sc2c(c1C(=O)Nc1ccccn1)CCCC2 | 1.7% |
| CCn1nc(C)c(CN2CCCC(CO)(Cc3ccccc3)C2)c1C (stereo not shown) | 4.08% |
| COC(=O)c1ccc(NC(=O)CN2C(=O)CCC2=O)cc1 | 8.98% |
| Cc1cccc(-n2c(Cc3cc(=O)[nH]c(=O)[nH]3)nnc2SCC(=O)NCc2ccco2)c1 | 5.36% |
| COc1ccc(OC)c(C(=O)c2ccc(Cl)cc2)c1 | 10.4% |
| CCCCC1=CC2=CC(=O)C(C)(OC(=O)c3ccc(Cl)nc3)C(=O)C2=CO1 (stereo not shown) | 6.32% |
| CC(OC(=O)c1ccc(Cl)c(S(=O)(=O)N2CCCC2)c1)C(=O)NC1CCCCC1C (stereo not shown) | 8.79% |
| Cc1cccc(NC(=O)CCc2c(C)nc3ncnn3c2C)n1 | 8.65% |
| CSc1nc(C(=O)N2CCc3c([nH]c4ccccc34)C2c2ccccn2)cs1 (stereo not shown) | 16.1% |
| Cc1noc(C)c1CSCC(=O)Nc1cc(C(F)(F)F)ccc1N1CCOCC1 | -3.73% |
| CCOC(=O)N1CCN(C(=O)c2cc3c(-c4ccc(Cl)cc4)nn(C)c3s2)CC1 | -8.32% |
| CN(Cc1cc([N+](=O)[O-])ccc1Cl)C(=O)C[n+]1ccccc1.[Cl-] | 15.9% |
| CC(=O)c1ccc(-c2nnc(CCC(=O)N(C)Cc3cccc4cnccc34)o2)s1 | -15% |
| COc1cccc(C(=O)C2CCCN(Cc3cccc(-n4nc(C)cc4C)c3)C2)c1 (stereo not shown) | -30.5% |
| Cc1nn(-c2cc(C)c3ccccc3n2)c2c1C1C(C2)C1(C)C (stereo not shown) | 9.73% |
| COc1ccc(-c2nnc(NC(=O)c3ccccc3[N+](=O)[O-])s2)c(OC)c1 | -10.6% |
| CCOc1ccc(OCc2cccc(C(=O)N/N=C/c3cccnc3)c2)cc1 | 3.77% |

Reference: paper PMC4336329 (PLoS ONE, 2015)
